The campaign covered roughly 150,000 compounds. About 540 (0.36%) showed an effect of 50% or more. The list shows a part of the results.

This assay concerns Plasmodium falciparum. Nature of the assay: Primary screen in NF54 nanoGlo assay, in single point, at 2uM, 72h; a lower Z score goes with more inhibition. It is filed as functional, Erythrocyte. Conditions: timepoint 72 hour.
In the case of `CCN(CC)c1nc(O)nc(N(CC)CC)n1`, the “% Inhibition” value was -1% and the Z score came to 0.18.
The like results for `COC[C@@H]1CC(F)(F)CN1C1CCN(C(=O)CCn2cccn2)CC1` were, in that order, -2% and 0.36.
In the case of `C[C@H]1CNC(=O)CCN1C(=O)c1ccccc1Oc1ccccc1`, the “% Inhibition” value was -9% and the Z score was 1.42.
In the case of `CC(=O)N(CCc1noc(C2CCC2)n1)[C@H]1CCN(S(=O)(=O)N(C)C)C1`, the “% Inhibition” value stood at 2% and the Z score was -0.27.
The like results for `COc1ccccc1CCC(=O)N1CC[C@](C)(O)[C@@H](O)C1` were, in that order, 5% and -1.01.
The corresponding values for `Cc1nn(C)c(C)c1CC(=O)Nc1cnns1` are -7% and 0.9.
Regarding `C[C@H]1CN(c2cc(C(=O)N3CCC(C)(C)c4ccccc43)ccn2)CCO1`, the “% Inhibition” value is reported as -3% and the Z score worked out at 0.49.
Take `O=C(NCc1cccnc1)N1C[C@@H]2[C@@H]3CC[C@@H](C3)[C@@H]2C1`: the “% Inhibition” value was -10% and the Z score was determined as 1.67.
Take `Cn1cc(/C(N)=N/O)c(=O)c2ccc(N3CCOCC3)cc21`: the “% Inhibition” value was determined as 10% and the Z score is -1.17.
The corresponding values for `OCC1CCCN1CC1CCCN1c1ncc(C(F)(F)F)cc1Cl` (stereo not given) are -2% and 0.22.
The like results for `CN(C)c1ncnc(NCc2ccccc2CN2CCCCC2)c1N` were, in that order, -6% and 0.87.
Turning to `CCc1ncnc(N[C@@H](C)c2ccncc2)c1F`, the “% Inhibition” value is listed as -8% and the Z score came to 1.1.
The corresponding values for `CN(CCc1nc(C2CC2)nn1-c1ccccc1C(F)(F)F)S(C)(=O)=O` are -4% and 0.36.
The corresponding values for `Cc1noc(CN2CCN([C@H]3CCN(Cc4c(F)cccc4Cl)C3)C2=O)n1` are -4% and 0.69.
As for `O=C(NCCOc1ccc2c(c1)OCO2)c1ccc2c(c1)OCCO2`, the “% Inhibition” value is -8% and the Z score is given as 1.36.
The like results for `CCOc1ccc(Cc2nc(C)c(CC(N)=O)c(O)n2)cc1` were, in that order, -4% and 0.5.
As to `COc1ncccc1C(=O)Nc1cnns1`, the “% Inhibition” value is reported as 0% and the Z score was -0.04.
The corresponding values for `CC(C)OC1CN(c2ncccc2C#N)C1` are -14% and 1.82.
The like results for `c1ccc(CNc2cc(-c3ncccn3)c3cc[nH]c3n2)nc1` were, in that order, -19% and 1.74.
Consider `CC(C)Oc1ccc(NC(=O)C(C)C)cc1`, for which the “% Inhibition” value is -5% and the Z score was determined as 0.72.
Turning to `O=C([C@H]1CC12CCN(Cc1cccs1)CC2)N1CCN(c2ccccc2)CC1`, the “% Inhibition” value is recorded as -1% and the Z score turned out to be 0.22.
As to `CCS(=O)(=O)Nc1ccnn1[C@@H](C)C1CC1`, the “% Inhibition” value is listed as 3% and the Z score is on record as -0.45.
The like results for `COc1ccc(C(=O)N[C@H]2CN[C@H](C(=O)N3C[C@H]4CC=CC[C@H]4C3)C2)cc1` were, in that order, -11% and 1.02.
As for `NS(=O)(=O)c1ccc(CCNC(=O)C2CC3CCCCC3N2S(=O)(=O)c2ccccc2)cc1` (stereo not given), the “% Inhibition” value is reported as -9% and the Z score is 1.46.
As to `C[C@H](Oc1cccnc1)C(=O)NCCN1c2ccccc2NS1(=O)=O`, the “% Inhibition” value was 1% and the Z score was -0.07.
For `CCCC(N)C(=O)N1C2CCC1CC(N(C)C(=O)c1ccccc1)C2` (stereo not given), the “% Inhibition” value stood at 1% and the Z score is on record as -0.09.
Regarding `COCc1nocc1CNCCC(=O)OC(C)(C)C`, the “% Inhibition” value is -8% and the Z score is reported as 1.03.
For the compound `COc1cccc(F)c1C(C)NC(C)c1ccc(-n2cnnn2)cc1` (stereo not given), the “% Inhibition” value is on record as -8% and the Z score is on record as 0.8.
The corresponding values for `O=C(NC[C@H]1CCc2ccccc21)NC1CCCC1` are -2% and 0.27.
As for `O=C(C[C@H]1CCCCN(Cc2ccccc2)C1=O)N1CCN(c2ncccn2)CC1`, the “% Inhibition” value was -3% and the Z score was 0.62.
The corresponding values for `O=C(O)c1ccccc1CC(=O)N1CCCCCCC1` are -3% and 0.42.
Regarding `Cc1cccc2c1N(CC(=O)NCc1ccc(F)cc1)C(=O)[C@@H]1CCCN1C2=O`, the “% Inhibition” value was -1% and the Z score was 0.19.
Turning to `Cc1c(CCNC(=O)NCC2CC23CCc2ccccc23)cnn1C` (stereo not given), the “% Inhibition” value is 36% and the Z score was -4.11.
For the compound `O=C(N[C@@H]1C[C@H]1C1CCCCC1)N1CCC(N2CCCCC2)C1` (stereo not given in full), the “% Inhibition” value was -9% and the Z score stood at 1.45.
In the case of `N#Cc1nc(NC(=O)c2ccc3c(c2)OCO3)[nH]c1C#N`, the “% Inhibition” value was determined as 3% and the Z score is on record as -0.26.
The corresponding values for `COc1ccc(Cl)cc1CN(CC#N)S(=O)(=O)N(C)C` are -6% and 0.77.
The corresponding values for `COc1ccc(NC(=O)Cn2nc(N3CCC(C)CC3)c3ccccc3c2=O)cc1Cl` are -7% and 1.01.
Turning to `CC(C)[C@@H](C(=O)N(C)Cc1cccs1)S(=O)(=O)C1CCCCC1`, the “% Inhibition” value is reported as -7% and the Z score is on record as 1.06.
Turning to `Cc1cc(NC(=O)Cn2ncn(C)c2=O)nn1CC(F)(F)F`, the “% Inhibition” value was -5% and the Z score was 1.05.
The corresponding values for `CN(C)c1ccc(NC(=O)c2cccc(C(=O)Nc3ccc(N(C)C)cc3)c2)cc1` are -26% and 3.06.
The corresponding values for `CC(=O)c1c(N)nc(C)nc1C(Cl)(Cl)Cl` are -27% and 3.17.
For the compound `Cc1ncoc1C(=O)N1CC(F)(F)C[C@H]1c1nnc(C2CC2)o1`, the “% Inhibition” value worked out at 2% and the Z score is reported as -0.42.
On to `CC1(C)NC(=O)N(CC(=O)N2CCCNCC2)C1=O`, for which the “% Inhibition” value was -17% and the Z score came to 2.57.
The corresponding values for `O=S(=O)(c1cc(Cl)ccc1Cl)N1C[C@H](COCC2CC2)C2(CCOCC2)C1` are -10% and 1.34.
The like results for `CN1CCN(CC[C@H]2CCCCN2C(=O)CCc2ccncc2)CC1` were, in that order, 2% and -0.27.
`CCN1CCC[C@@H]1CNC(=O)c1cc2c(=O)n(CC(C)C)c3ccccc3n2n1`: the “% Inhibition” value came to 24% and the Z score is given as -2.34.
Take `CN1C(=O)c2cc(C(F)(F)F)ccc2O[C@H]2CN(C(=O)NC3CCCCC3)C[C@H]21`: the “% Inhibition” value is given as -9% and the Z score is given as 1.32.
The corresponding values for `Cc1cccc(OCC(=O)N(Cc2cccc(Cl)c2)[C@H]2CCS(=O)(=O)C2)c1` are -11% and 0.94.
Take `Cc1cc(NC(=O)[C@H]2CCOC2)nn1C1CCCCC1`: the “% Inhibition” value was -16% and the Z score was determined as 2.04.
As to `Oc1nc(-c2cccnc2)nc2c1CCCC2`, the “% Inhibition” value was determined as 0% and the Z score was 0.07.
With `N#CCNC(=O)Cc1ccc(F)cc1Cl`, the “% Inhibition” value is listed as -1% and the Z score amounted to 0.12.
For the compound `CCN1CCCN(Cc2ccc3ccccc3n2)CC1=O`, the “% Inhibition” value is on record as -4% and the Z score was determined as 0.6.
With `COc1ccccc1CN1CCC([C@]2(Cc3ccccc3Cl)NC(=O)N(CC3CC3)C2=O)CC1`, the “% Inhibition” value is 3% and the Z score is reported as -0.35.
On to `CC(C)(c1nc(-c2ncc[nH]2)no1)S(=O)(=O)C1CC1`, for which the “% Inhibition” value is -8% and the Z score came out at 0.89.
For the compound `Cc1nc2ccccc2n1CCNC1[C@@H]2CCO[C@@H]2C12CCC2` (stereo not given in full), the “% Inhibition” value is 16% and the Z score is on record as -2.05.
Regarding `Cc1ccccc1-c1noc(CN2CCN(CN3CCOC3=S)CC2)n1`, the “% Inhibition” value is -10% and the Z score stood at 1.62.
Take `NC(=O)c1cccc(CN2CCC3(CC2)C[C@@H]3c2nnc(-c3ccccc3)o2)c1`: the “% Inhibition” value was -3% and the Z score was determined as 0.36.
`CC(NC(=O)N1CCC(C(N)=O)C1)c1ccc(Cl)s1` (stereo not given): the “% Inhibition” value is given as -33% and the Z score is listed as 3.03.
The corresponding values for `CC(=O)Nc1ccc(CCNCc2cn(C)nc2-c2ccncc2)cc1` are -18% and 1.84.
With `Cc1ccc(N(C)S(=O)(=O)c2cc(C(=O)N3CCCC3)cs2)cc1`, the “% Inhibition” value was determined as 1% and the Z score is recorded as -0.05.
The like results for `C=CCC1(O)C(C)C(c2ccc(N(C)C)cc2)NC(c2ccc(N(C)C)cc2)C1C` (stereo not given) were, in that order, -21% and 3.12.
Consider `CCN(CC)Cc1csc(NC(=O)c2ccn(C)n2)n1`, for which the “% Inhibition” value is -22% and the Z score is on record as 2.92.
Turning to `Cc1cccc(C)c1NC(=O)N1CCC2(CC1)C(=O)N(CC(=O)N(C)Cc1ccccc1)CN2c1ccccc1`, the “% Inhibition” value was found to be 4% and the Z score is -0.63.
As to `CN(C)S(=O)(=O)N1C[C@H]2CC[C@@H](C1)N(Cc1ccc(-n3cccn3)cc1)C2`, the “% Inhibition” value was -9% and the Z score came out at 1.6.
Turning to `O=C1CCOCCN1Cc1cccc2ccccc12`, the “% Inhibition” value is listed as -9% and the Z score is on record as 1.7.
With `Cc1cccc(NC(=O)C2CCN(S(=O)(=O)c3c(C)nn(-c4ccccc4)c3C)CC2)c1C`, the “% Inhibition” value is listed as -6% and the Z score is reported as 0.88.
As for `O=C(N[C@@H]1CN(C2CCCCCC2)C[C@H]1CO)c1ccncc1`, the “% Inhibition” value was -14% and the Z score came out at 1.99.
The like results for `Cc1nnc([C@H](C)NC(c2ccccc2C)c2ccccc2C)s1` were, in that order, -5% and 0.8.
Consider `Cc1ncsc1C(=O)NS(=O)(=O)c1c(C)nn(C)c1C`, for which the “% Inhibition” value is recorded as 9% and the Z score is given as -1.17.
The corresponding values for `CC[C@H](C)C(=O)NCCCN1CCCC1` are -38% and 4.49.
The corresponding values for `Cc1ccc(NC(=O)CC(=O)N(C)Cc2cc(C)no2)c(C)c1` are -3% and 0.4.
The like results for `Cc1nn(CCCNC(=O)[C@H]2CCOC2)c(C)c1Cl` were, in that order, -6% and 1.16.
For the compound `COc1cc(N[C@@H]2COCC[C@@H]2OCc2c(C)noc2C)nc(N)n1`, the “% Inhibition” value is given as -6% and the Z score came to 0.92.
With `O=C(NCCn1cc(Br)cn1)C1CCC1c1ccc(F)cc1` (stereo not given), the “% Inhibition” value is given as -12% and the Z score came out at 1.88.
As for `Cn1c(=O)c2c(ncn2[C@@H](C(=O)Nc2ccc(Cl)c(C(F)(F)F)c2)c2ccccc2)n(C)c1=O`, the “% Inhibition” value was 1% and the Z score is reported as -0.21.
In the case of `Cc1cnn(CCNCC(=O)N2CCOC3CCCCC32)c1` (stereo not given), the “% Inhibition” value is -8% and the Z score was determined as 0.9.
As to `CCC1CCN(CCNc2ncc(F)c(OC)n2)CC1`, the “% Inhibition” value was -13% and the Z score is 1.32.
The corresponding values for `CC1CN(C(=O)CN2CC(c3ccsc3)CC2C)CCO1` (stereo not given) are -7% and 0.96.
The corresponding values for `COc1cc(-c2ncnn2CC(C)(C)O)ccn1` are -12% and 1.44.
Regarding `C#CCNC(=O)Cc1cc(OCC)c(OCC)cc1Br`, the “% Inhibition” value is listed as -10% and the Z score was found to be 0.87.
In the case of `COCc1nnc(NC(=O)c2ccc3c(c2)C(=O)N(C2CCCCCC2)C3=O)s1`, the “% Inhibition” value turned out to be 5% and the Z score is -0.68.
The corresponding values for `Cn1cc(S(=O)(=O)N[C@H]2CCN(c3ccc(Cl)cc3)C2)cn1` are 0% and -0.06.
The like results for `CC(C)OC1CCC(NC(=O)N(C)CC2(N(C)C)CCC2)CC1` (stereo not given) were, in that order, 2% and -0.28.
The corresponding values for `C#Cc1cccc(NC(=O)N[C@@H](C)C(=O)N2CCS(=O)(=O)CC2)c1` are -2% and 0.34.
As for `CC(C)C[C@H]1C(=O)NCCN1S(=O)(=O)c1cc(Cl)cnc1N`, the “% Inhibition” value is listed as -11% and the Z score amounted to 0.98.

Values taken from ChEMBL document CHEMBL4888484, “Replenishing the malaria drug discovery pipeline: Screening and hit evaluation of the MMV Hit Generation Library 1 (HGL1) against asexual blood stage Plasmodium falciparum ,using a nano luciferase reporter read-out” (2022).
